Binding data for two molecules are collected here from PMC7363125.

Test [1] deals with T1, GST-PLEKHA7 WW1 + WW2 domain (1-162) D30A (human) (UniProt Q6IQ23).
T1 sequence: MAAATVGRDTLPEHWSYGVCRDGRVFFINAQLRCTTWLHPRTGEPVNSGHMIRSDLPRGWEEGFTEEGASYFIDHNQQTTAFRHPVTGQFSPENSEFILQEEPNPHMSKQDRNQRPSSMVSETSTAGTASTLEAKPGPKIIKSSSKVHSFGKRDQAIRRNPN
Put plainly: pull-down; 5 ug GST-PLEKHA7 WW bait (E. coli) coupled to GSH-Sepharose beads, washed, incubated 1 h at 4 °C with normalized HEK cell lysate holding PDZD11-HA or CFP-HA; immunoblot with anti-HA; only the target purified.

For test [2], the target named is T2, GST-PLEKHA7 WW1 + WW2 domain (1-162) D30A + H75A (human) (UniProt Q6IQ23).
T2 sequence: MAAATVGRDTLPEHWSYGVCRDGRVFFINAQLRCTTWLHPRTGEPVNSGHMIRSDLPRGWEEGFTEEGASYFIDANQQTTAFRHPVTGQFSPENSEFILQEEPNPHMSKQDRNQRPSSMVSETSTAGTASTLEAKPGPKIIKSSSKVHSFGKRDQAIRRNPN
The test is described as above.

Test [3] has as its target T3, GST-PLEKHA7 WW1 domain (residues 1-56) Y17A (human) (UniProt Q6IQ23).
T3 sequence: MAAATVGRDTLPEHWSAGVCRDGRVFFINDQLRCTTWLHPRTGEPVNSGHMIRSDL
The test is described as above.

Test [4] addresses T4, GST-PLEKHA7 WW1 + WW2 domain (1-162) R33A + D74A (human) (UniProt Q6IQ23).
T4 sequence: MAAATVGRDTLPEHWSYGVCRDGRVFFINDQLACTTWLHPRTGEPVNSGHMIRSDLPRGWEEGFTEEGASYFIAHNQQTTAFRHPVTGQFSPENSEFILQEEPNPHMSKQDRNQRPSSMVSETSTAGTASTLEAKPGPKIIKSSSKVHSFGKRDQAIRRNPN
The test is described as above.

Test [5] addresses T5, GST-PDZD11 full-length P16,21,22A (human) (UniProt Q5EBL8).
T5 sequence: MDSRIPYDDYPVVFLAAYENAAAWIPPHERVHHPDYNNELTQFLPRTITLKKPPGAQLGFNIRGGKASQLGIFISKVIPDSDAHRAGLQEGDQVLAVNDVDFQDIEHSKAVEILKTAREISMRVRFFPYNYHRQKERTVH
Put plainly: pull-down; GST-PDZD11 baits (full-length, truncated, 1-30, mutants; E. coli) on GSH-Sepharose beads, incubated 1 h at 4 °C with insect cell lysate holding full-length PLEKHA7-His; immunoblot with anti-His; only the target purified. On the technique in general: A western blot detects proteins with antibodies after separation by electrophoresis.

For test [6], the target named is T6, GST-PDZD11 N-term 1-30 P16A (human) (UniProt Q5EBL8).
T6 sequence: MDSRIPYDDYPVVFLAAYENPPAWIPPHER
The test is described as above.

The target in test [7] is T7, GST-PDZD11 full-length P21A,P22A (human) (UniProt Q5EBL8).
T7 sequence: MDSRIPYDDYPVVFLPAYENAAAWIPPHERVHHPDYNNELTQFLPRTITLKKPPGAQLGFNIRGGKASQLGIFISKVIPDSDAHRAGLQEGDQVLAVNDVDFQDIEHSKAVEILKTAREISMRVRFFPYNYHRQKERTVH
The description is as above.

In test [8] the target is T8, GST-PDZD11 N-term 1-30 P21,22,26,27A (human) (UniProt Q5EBL8).
T8 sequence: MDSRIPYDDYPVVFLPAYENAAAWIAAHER
Described as above.

Test [9] concerns the target T9, GST-PDZD11 Δ14 (deletion of 14 N-terminal residues of full-length PDZD11) (human) (UniProt Q5EBL8).
T9 sequence: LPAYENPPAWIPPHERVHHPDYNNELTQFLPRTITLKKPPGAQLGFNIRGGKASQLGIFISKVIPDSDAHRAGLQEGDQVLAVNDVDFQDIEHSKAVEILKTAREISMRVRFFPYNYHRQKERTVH
The description is as above.

The target in test [10] is T10, GST-PDZD11 full-length P21,22,26,27A (human) (UniProt Q5EBL8).
T10 sequence: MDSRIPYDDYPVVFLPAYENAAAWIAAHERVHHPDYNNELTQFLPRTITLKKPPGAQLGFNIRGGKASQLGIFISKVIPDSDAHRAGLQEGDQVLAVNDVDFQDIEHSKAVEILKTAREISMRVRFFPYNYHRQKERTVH
The test is described as above.

In test [11] the target is T11, GST-PDZD11 full-length P16,21,22,26,27A (human) (UniProt Q5EBL8).
T11 sequence: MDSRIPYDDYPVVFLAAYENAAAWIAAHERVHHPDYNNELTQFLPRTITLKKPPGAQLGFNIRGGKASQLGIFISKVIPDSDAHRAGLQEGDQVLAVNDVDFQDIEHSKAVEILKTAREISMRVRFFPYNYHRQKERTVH
The description is as above.

These are yes or no findings as the source states them, for the method shown. Binding seen in cells or lysates may run through a third protein. Some entries that bind do so weakly or less than the wild type. Sequences can lack the tags named with a protein.

B1: PDZD11-HA (human) full-length (protein, UniProt Q5EBL8 1-140)
chain: MDSRIPYDDYPVVFLPAYENPPAWIPPHERVHHPDYNNELTQFLPRTITLKKPPGAQLGFNIRGGKASQLGIFISKVIPDSDAHRAGLQEGDQVLAVNDVDFQDIEHSKAVEILKTAREISMRVRFFPYNYHRQKERTVH
For B1, the binding result in [1] is reported as “binds”; in test [2], “no binding”; in test [3] it was “binds”; in [4], “binds”.

B2: PLEKHA7-His, full-length (protein, UniProt Q6IQ23 1-1121)
chain: MAAATVGRDTLPEHWSYGVCRDGRVFFINDQLRCTTWLHPRTGEPVNSGHMIRSDLPRGWEEGFTEEGASYFIDHNQQTTAFRHPVTGQFSPENSEFILQEEPNPHMSKQDRNQRPSSMVSETSTAGTASTLEAKPGPKIIKSSSKVHSFGKRDQAIRRNPNVPVVVRGWLHKQDSSGMRLWKRRWFVLADYCLFYYKDSREEAVLGSIPLPSYVISPVAPEDRISRKYSFKAVHTGMRALIYNSSTAGSQAEQSGMRTYYFSADTQEDMNAWVRAMNQAAQVLSRSSLKRDMEKVERQAVPQANHTESCHECGRVGPGHTRDCPHRGHDDIVNFERQEQEGEQYRSQRDPLEGKRDRSKARSPYSPAEEDALFMDLPTGPRGQQAQPQRAEKNGMLPASYGPGEQNGTGGYQRAFPPRTNPEKHSQRKSNLAQVEHWARAQKGDSRSLPLDQTLPRQGPGQSLSFPENYQTLPKSTRHPSGGSSPPPRNLPSDYKYAQDRASHLKMSSEERRAHRDGTVWQLYEWQQRQQFRHGSPTAPICLGSPEFTDQGRSRSMLEVPRSISVPPSPSDIPPPGPPRVFPPRRPHTPAERVTVKPPDQRRSVDISLGDSPRRARGHAVKNSSHVDRRSMPSMGYMTHTVSAPSLHGKSADDTYLQLKKDLEYLDLKMTGRDLLKDRSLKPVKIAESDTDVKLSIFCEQDRVLQDLEDKIRALKENKDQLESVLEVLHRQMEQYRDQPQHLEKIAYQQKLLQEDLVHIRAELSRESTEMENAWNEYLKLENDVEQLKQTLQEQHRRAFFFQEKSQIQKDLWRIEDVTAGLSANKENFRILVESVKNPERKTVPLFPHPPVPSLSTSESKPPPQPSPPTSPVRTPLEVRLFPQLQTYVPYRPHPPQLRKVTSPLQSPTKAKPKVEDEAPPRPPLPELYSPEDQPPAVPPLPREATIIRHTSVRGLKRQSDERKRDRELGQCVNGDSRVELRSYVSEPELATLSGDMAQPSLGLVGPESRYQTLPGRGLSGSTSRLQQSSTIAPYVTLRRGLNAESSKATFPRPKSALERLYSGDHQRGKMSAEEQLERMKRHQKALVRERKRTLGQGERTGLPSSRYLSRPLPGDLGSVC
Regarding B2, the binding result in [5] was “no binding”; in test [6] it was “binds”; in test [7], “binds”; in [8], “no binding”; in test [9], “binds”; in [10] it was “no binding”. For the same molecule, in test [11], the binding entry is given as “no binding”.
